# Experimental data as given in the supplement of paper PMC8728848.
# The list shows a part of the results.
# B1: LecRKVI.2 (protein)
# chain: RTTTNFAFRGFNGNQSKIRIEGAAMIKPDGLLRLTDRKSNVTGTAFYHKPVRLLNRNSTNVTIRSFSTSFVFVIIPSSSSNKGFGFTFTLSPTPYRLNAGSAQYLGVFNKENNGDPRNHVFAVEFDTVQGSRDDNTDRIGNDIGLNYNSRTSDLQEPVVYYNNDDHNKKEDFQLESGNPIQALLEYDGATQMLNVTVYPARLGFKPTKPLISQHVPKLLEIVQEEMYVGFTASTGKGQSSAHYVMGWSFSSGGERPIADVLILSELPPPPPNKAKKEGLNS
# How the values were obtained:
# Assay in all cases: glycan array binding signal (z-score within array); higher = stronger binding
# Conditions in all cases: glycan notation: IUPAC condensed, linker removed
# [1] = target: Fuc(a1-2)Gal(b1-4)GlcNAc(b1-3)Gal(b1-4)GlcNAc(b1-3)Gal(b1-4)GlcNAc
# Summary of the method: (§1)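 Columns mapping to the same glycan were averaged after glycan names were converted to IUPAC-condensed notation. The data come from 3228 arrays in the Consortium for Functional Glycomics database, limited to those with an available protein sequence. Binding is reported as a within-array Z-score averaged across arrays of one protein sequence and across linkers.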
# [2] = target: Fuc(a1-2)Gal(b1-4)GlcNAc(b1-3)GalNAc
# Summary of the method: as §1
# [3] = target: Fuc(a1-2)Gal(b1-4)GlcNAc(b1-3)[Fuc(a1-2)Gal(b1-4)GlcNAc(b1-6)]GalNAc
# Summary of the method: as §1
# [4] = target: Fuc(a1-2)Gal(b1-4)GlcNAc(b1-3)[Fuc(a1-3)[Gal(b1-4)]GlcNAc(b1-6)]Gal(b1-4)Glc
# Summary of the method: as §1
# [5] = target: Fuc(a1-2)Gal(b1-4)GlcNAc(b1-6)GalNAc
# Summary of the method: as §1
# [6] = target: Fuc(a1-2)Gal(b1-4)GlcNAc6S
# Summary of the method: as §1
# [7] = target: Fuc(a1-2)Gal(b1-4)[Fuc(a1-3)]GlcNAc
# Summary of the method: as §1
# [8] = target: Fuc(a1-2)Gal(b1-4)[Fuc(a1-3)]GlcNAc(b1-2)Man(a1-3)[Fuc(a1-2)Gal(b1-4)[Fuc(a1-3)]GlcNAc(b1-2)Man(a1-6)]Man(b1-4)GlcNAc(b1-4)[Fuc(a1-6)]GlcNAc
# Summary of the method: as §1
# [9] = target: Fuc(a1-2)Gal(b1-4)[Fuc(a1-3)]GlcNAc(b1-2)[Fuc(a1-2)Gal(b1-4)[Fuc(a1-3)]GlcNAc(b1-4)]Man(a1-3)[Fuc(a1-2)Gal(b1-4)[Fuc(a1-3)]GlcNAc(b1-2)Man(a1-6)]Man(b1-4)GlcNAc(b1-4)GlcNAc
# Summary of the method: as §1
# [10] = target: Fuc(a1-2)Gal(b1-4)[Fuc(a1-3)]GlcNAc(b1-3)Gal(b1-4)[Fuc(a1-3)]GlcNAc
# Summary of the method: as §1
# [11] = target: Fuc(a1-2)Gal(b1-4)[Fuc(a1-3)]GlcNAc(b1-3)Gal(b1-4)[Fuc(a1-3)]GlcNAc(b1-3)Gal(b1-4)[Fuc(a1-3)]GlcNAc
# Summary of the method: as §1
# [12] = target: Fuc(a1-2)Gal(b1-4)[Fuc(a1-3)]GlcNAc(b1-3)GalNAc
# Summary of the method: as §1
# [13] = target: Fuc(a1-2)Gal(b1-4)[Fuc(a1-3)]GlcNAc(b1-3)[Neu5Ac(a2-6)Gal(b1-4)GlcNAc(b1-6)]Gal(b1-4)Glc
# Summary of the method: as §1
# [14] = target: Fuc(a1-2)Gal3S(b1-4)GlcNAc
# Summary of the method: as §1
# [15] = target: Fuc(a1-2)Gal6S(b1-3)GlcNAc
# Summary of the method: as §1
# [16] = target: Fuc(a1-2)Gal6S(b1-3)GlcNAc6S
# Summary of the method: as §1
# Fuc(a1-2)Gal6S(b1-4)Glc = target: Fuc(a1-2)Gal6S(b1-4)Glc
# Summary of the method: as §1
# [17] = target: Fuc(a1-2)Gal6S(b1-4)Glc6S
# Summary of the method: as §1
# Fuc(a1-2)[Gal(a1-3)]Gal = target: Fuc(a1-2)[Gal(a1-3)]Gal
# Summary of the method: as §1
# [18] = target: Fuc(a1-2)[Gal(a1-3)]Gal(b1-3)GalNAc
# Summary of the method: as §1
# [19] = target: Fuc(a1-2)[Gal(a1-3)]Gal(b1-3)GalNAc(b1-3)Gal(a1-4)Gal(b1-4)Glc
# Summary of the method: as §1
# [20] = target: Fuc(a1-2)[Gal(a1-3)]Gal(b1-3)GlcNAc
# Summary of the method: as §1
# [21] = target: Fuc(a1-2)[Gal(a1-3)]Gal(b1-3)GlcNAc(b1-2)Man(a1-3)[Fuc(a1-2)[Gal(a1-3)]Gal(b1-3)GlcNAc(b1-2)Man(a1-6)]Man(b1-4)GlcNAc(b1-4)GlcNAc
# Summary of the method: as §1
# [22] = target: Fuc(a1-2)[Gal(a1-3)]Gal(b1-3)GlcNAc(b1-2)Man(a1-3)[Fuc(a1-2)[Gal(a1-3)]Gal(b1-3)GlcNAc(b1-2)Man(a1-6)]Man(b1-4)GlcNAc(b1-4)[Fuc(a1-6)]GlcNAc
# Summary of the method: as §1
# [23] = target: Fuc(a1-2)[Gal(a1-3)]Gal(b1-3)GlcNAc(b1-3)GalNAc
# Summary of the method: as §1
# [24] = target: Fuc(a1-2)[Gal(a1-3)]Gal(b1-3)GlcNAc(b1-6)GalNAc
# Summary of the method: as §1
# [25] = target: Fuc(a1-2)[Gal(a1-3)]Gal(b1-4)Glc
# Summary of the method: as §1
# [26] = target: Fuc(a1-2)[Gal(a1-3)]Gal(b1-4)GlcNAc
# Summary of the method: as §1
# [27] = target: Fuc(a1-2)[Gal(a1-3)]Gal(b1-4)GlcNAc(b1-2)Man
# Summary of the method: as §1
# [28] = target: Fuc(a1-2)[Gal(a1-3)]Gal(b1-4)GlcNAc(b1-2)Man(a1-3)[Fuc(a1-2)[Gal(a1-3)]Gal(b1-4)GlcNAc(b1-2)Man(a1-6)]Man(b1-4)GlcNAc(b1-4)GlcNAc
# Summary of the method: as §1
binder,measurement,setting,value
B1,glycan array binding signal (z-score),[1],-0.314
same,glycan array binding signal (z-score),[2],-0.305
same,glycan array binding signal (z-score),[3],0.911
same,glycan array binding signal (z-score),[4],-0.413
same,glycan array binding signal (z-score),[5],-0.297
same,glycan array binding signal (z-score),[6],-0.419
same,glycan array binding signal (z-score),[7],-0.399
same,glycan array binding signal (z-score),[8],-0.315
same,glycan array binding signal (z-score),[9],-0.003
same,glycan array binding signal (z-score),[10],-0.315
same,glycan array binding signal (z-score),[11],-0.413
same,glycan array binding signal (z-score),[12],4.76
same,glycan array binding signal (z-score),[13],-0.288
same,glycan array binding signal (z-score),[14],-0.468
same,glycan array binding signal (z-score),[15],-0.432
same,glycan array binding signal (z-score),[16],-0.288
same,glycan array binding signal (z-score),Fuc(a1-2)Gal6S(b1-4)Glc,-0.362
same,glycan array binding signal (z-score),[17],0.023
same,glycan array binding signal (z-score),Fuc(a1-2)[Gal(a1-3)]Gal,-0.37
same,glycan array binding signal (z-score),[18],-0.358
same,glycan array binding signal (z-score),[19],-0.403
same,glycan array binding signal (z-score),[20],-0.329
same,glycan array binding signal (z-score),[21],0.691
same,glycan array binding signal (z-score),[22],-0.246
same,glycan array binding signal (z-score),[23],-0.414
same,glycan array binding signal (z-score),[24],-0.407
same,glycan array binding signal (z-score),[25],-0.169
same,glycan array binding signal (z-score),[26],-0.264
same,glycan array binding signal (z-score),[27],-0.253
same,glycan array binding signal (z-score),[28],0.276
